# Results taken from ChEMBL document CHEMBL4888484, “Replenishing the malaria drug discovery pipeline: Screening and hit evaluation of the MMV Hit Generation Library 1 (HGL1) against asexual blood stage Plasmodium falciparum ,using a nano luciferase reporter read-out” (2022).
# The whole screen tested about 150,000 compounds, of which about 540 (0.36%) showed an effect of 50% or more. This is one part of the list.
# System: Plasmodium falciparum
# Experiment: Primary screen in NF54 nanoGlo assay, in single point, at 2uM, 72h; a lower Z score goes with more inhibition
# Type: functional, Erythrocyte
# Details: timepoint 72 hour
Compound,% Inhibition,Z score
O=C(O)C1(n2cccn2)CCN(c2nc(-c3ccccc3)cs2)CC1,-4%,0.76
O=C(CCN1CCCC1=O)Nc1ccc2cc(Cl)cnc2n1,-9%,0.96
CN1CCC(N(CCc2ccccc2)C(=O)c2cnsn2)CC1,10%,-1.3
Cc1cccc(O[C@@H](C)c2cccnc2)n1,-4%,0.55
c1ccc([C@@]2(CN3CCC(OCc4cccnc4)CC3)CCOC2)cc1,-10%,1.79
CC(C)c1nc([C@@H]2CC(=O)Nc3n[nH]c(-c4ccccc4)c32)co1,-1%,0.24
Cc1ccc(C2CCCCCN2S(=O)(=O)C(C)C(=O)N(C)C)o1 (centres undefined),3%,-0.44
CCO[C@@H](C(=O)NC(C)(C)c1cc(C(F)F)on1)c1ccccc1,-5%,0.71
CCOc1cc(CNC2CCCC2)cc(Cl)c1OCc1ccccc1Cl,5%,-0.63
C[C@@H]1Oc2ccc(S(=O)(=O)N3CCN(C(=O)Cc4c(F)cccc4Cl)CC3)cc2NC1=O,-23%,2.27
O=C(NCCN1CCOCC1)C1CC2CCC1C2 (centres undefined),-13%,1.99
NC(=O)[C@@H]1C[C@@H]2CCCN2[C@]12C(=O)Nc1ccc(Br)cc12,-2%,0.24
Cn1nc(CCNS(=O)(=O)CC2CCCCC2)c2ccccc21,-2%,0.28
Cn1cnc2cc(-c3cnc(C4CC4)o3)ncc21,-8%,1.49
COc1ccc(C(=O)N2CCc3[nH]cnc3C23CCCCC3)cc1,-17%,1.9
O=C1CCC(=O)N1Cc1nc(-c2ccc(C3CCCCC3)cc2)cs1,-1%,0.18
Cc1nn(C)c2c1C[C@H](Nc1ncc(C#N)cc1Cl)CN2,-7%,0.82
CCOc1ccc(-c2cncc(C(=O)N(C)C)c2)nc1,-8%,1.48
O=C1NCC2(CCN(c3ccncc3F)CC2)O1,-3%,0.33

Compound,% Inhibition,Z score
COc1ccccc1OCC(=O)N1CC(n2ccnn2)C1,-5%,0.62
O=C(c1n[nH]c(=O)c2ccccc12)N1CCN(c2cc(C(F)(F)F)ncn2)CC1,-17%,2.2
CC1CCCC(C)N(C(=O)C2COCCO2)C1 (centres undefined),-10%,1.34
CCc1nnc(CNc2cc(NC(=O)OC(C)(C)C)ccc2C)n1C,-12%,1.93
CC(C)(C)OC(=O)N1CCC[C@H](CC#N)C1,5%,-0.73
O=C(Nc1cccc2ccccc12)c1cccs1,7%,-1.18
Cc1ccc(NS(C)(=O)=O)c(O)c1,4%,-0.45
O=C(Nc1ccc(Br)cn1)[C@@H]1Cc2ccccc2O1,-1%,0.24
CC(C)(C(=O)O)c1cnc(N2CCC2)nc1N1CCOCC1,3%,-0.54
CCCOc1cccc(CON=C(N)CCO)c1,-10%,1.38
CC12CC(=O)NC1N=C(c1ccccc1O)C2 (centres undefined),5%,-0.53
CCCc1nnc(N2C[C@H](C(C)C)[C@@H](N)C2)s1,1%,-0.16
CCc1nn(C)c2c(=O)n(Cc3csc(C)n3)cnc12,-7%,1.47
Cc1csc(C(=O)NCC[C@H](O)C(C)(C)C)c1,-11%,1.67
Cc1cccc(OC[C@H](C)NC(=O)NC2CCC(O)CC2)c1 (some centres undefined),-6%,1.02
O=C(C[C@]1(c2ccccc2F)CC(=O)N(C2CCCC2)C1=O)N1CCN(c2ccccc2)CC1,3%,-0.33
Cc1ncc2c(c1-c1noc(CCc3cccs3)n1)CCNC2,-10%,0.95
COc1ccc(CN2C(=O)c3c(NC(C)=O)c4ccccc4n3C[C@@]2(C)C(=O)NC2CCCC2)cc1,-3%,0.3
COc1ccc(CN2CCCCCC2CC(O)c2cccs2)nn1 (centres undefined),-11%,1.35

Compound,% Inhibition,Z score
Cn1cnnc1[C@H](CO)Nc1nc(C2CCCCC2)ns1,3%,-0.5
CN(CC1CCCC1O)C(=O)[C@H]1CCC(=O)N1 (some centres undefined),-10%,1.39
CC(C)CCN1CCN(CCC(C)C)[C@H](C(=O)N(C)C)C1,0%,-0.03
Cc1nn(C)c2nc(NCC3(N4CCOCC4)CCCCCC3)sc12,-2%,0.22
CCCC[C@@H]1C[C@@H]1C(=O)NCC1(O)CCN(C)CC1,4%,-0.85
Cc1cc(NC(=O)CN2CCC(c3nnc4n3CCC4)CC2)no1,-13%,2.19
COCC(=O)NC[C@H]1CCN(Cc2ccc3cccc(Cl)c3n2)C1,-3%,0.66
CCN1C[C@@H](c2ccccc2)CC2(CCN(S(=O)(=O)C3CC3)CC2)C1,8%,-1.02
CS(=O)(=O)c1ccc(CN2CCC([C@H](O)c3ccccn3)CC2)cc1,-10%,0.99
O=C(c1ccc(C(=O)N2CCCCC2)cc1)N1CCCCC1,-13%,2.38
CC(C)c1ccc(N2C[C@H](O)[C@@H](N3CCCC3)C2)nn1,-6%,0.86
NC(=O)[C@@H]1C[C@H](Oc2ccccc2)CN1S(=O)(=O)c1cccc(F)c1,-12%,1.62
O=C(CCC1CCCCO1)NC1CC[S+]([O-])C1 (centres undefined),-9%,1.3
C=CCn1nnnc1NC/C=C/c1ccc(Cl)cc1,-2%,0.22
Cc1nccn1C[C@H]1CCCN(c2nc3ccccc3o2)C1,9%,-1.29
OC[C@H]1CCCN1c1ncc(Cl)cc1Cl,-10%,1.43
O=C(NCC1(O)CCOCC1)Nc1ncc(C2CCCCC2)s1,-10%,1.05
Cc1nsc(C)c1C(=O)N1CCOc2cc(O)ccc2C1,-12%,2.17
O=C(NCCc1cnccn1)c1cn(C[C@H]2COc3ccccc3O2)nn1,-11%,1
